Results: PubChem BioAssay AID1345082 (National Center for Advancing Translational Sciences (NCATS), 2018)
The campaign covered roughly 94,000 compounds. About 4,000 (4.3%) were called active. Inconclusive results, whose numbers are uncertain, are shown with a selection of clear calls. Calls come from the whole dose curve; as a rule, active = well fitted inhibition curve with a large enough effect; inconclusive = small, poorly fitted or top-dose-only effect; inactive = no such curve, though single readings can be large or run the other way. Potencies beside an inconclusive call are fits to weak or partial responses and may not hold up.

assay: Cytotoxic Profiling in NIH 3T3 Cell Line of Diverse Libraries Using Quantitative High-Throughput Screening; conditions: NIH 3T3 viability, CellTiter-Glo ATP luminescence, 48-72 h; activity change, negative = cytotoxicity: at 96.7 µM (top of the series) unless noted; series mostly up to 96.7 µM; note: nearly all actives have a fitted effect of over 55% in size
How it was run: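 ATP-dependent luminescence (CellTiter-Glo) served as the viability signal for NIH 3T3 cells treated with compound for 48 or 72 hr at 37 °C.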
% is set by controls: 0 for no effect and ±100 for the full control effect; potency is the fitted concentration of half-maximal effect; tags give direction and shape of the fitted curve.

| Structure (SMILES) | Potency | activity change, negative = cytotoxicity | outcome |
| --- | --- | --- | --- |
| Cc1nnc(-c2cc(-c3cccc(N(C)C)c3)ccn2)n1Cc1ccncc1 | inconclusive: 50.1 µM [inhibitor, partial curve, poor fit] | – | – |
| COc1ccc(CN2CCCC3(Cc4ccccc4CNC3=O)C2)c(OC)n1 (stereo not given) | inconclusive: 70.8 µM [inhibitor, single point] | – | – |
| O=C1CC(c2ccccc2)N(C(=O)CNC(=O)C2CCC2)CCCCCN1 (stereo not given) | – | inactive: -5.49% | – |
| COc1ccccc1NC(=O)N1CCOc2ccc(CN3CCc4ccccc4C3)cc2C1 | inconclusive: 50.1 µM [inhibitor, partial curve, poor fit] | – | – |
| O=C(NC1CCN(c2nccc(Nc3ccccc3Cl)n2)CC1)c1ccccc1Cl | inconclusive: 25.1 µM [inhibitor, full curve] | – | – |
| CCc1noc(-c2nc(-c3ccccc3F)no2)n1 | – | inactive: -8.51% | – |
| O=C(Nc1ccc(Oc2ccccc2)cc1)N[C@H]1CO[C@H]2[C@@H]1OC[C@@H]2n1cc(-c2ccccc2)nn1 | inconclusive: 20 µM [inhibitor, full curve, poor fit] | – | – |
| COc1ccc(-c2cc(C(=O)NCc3cc(C)on3)c3c(c2)N(C)CCO3)cc1OC | inconclusive: 79.4 µM [inhibitor, partial curve] | – | – |
| COC1C(=O)N(c2cccc(F)c2)C12CCN(S(=O)(=O)c1ccccc1C)CC2 (stereo not given) | inconclusive: 50.1 µM [inhibitor, partial curve, poor fit] | – | – |
| Cc1cccc(NC(=O)Cn2c(=O)n(-c3ccccc3)c(=O)c3c2cc(C)n3C)c1 | – | – | inactive |
| COCCCNC(=O)N1CCCN(S(=O)(=O)c2ccccc2)CCC(=O)NCC1 | – | inactive: 3.85% | – |
| COc1ccc(NC(=O)c2ccc3c(c2)OCCN(C2CCC2)C3)cn1 | – | inactive: -20.9% [at 138 µM] | – |
| CC(C)N1CCN(Cc2ccccc2C#Cc2ccccc2)CC1CCO (stereo not given) | inconclusive: 89.1 µM [inhibitor, single point] | – | – |
| COCCN1C(=O)[C@@H]2C[C@@H](CN2Cc2nccn2C)Oc2ccccc21 | – | inactive: 2.34% [at 138 µM] | – |
| COc1ccc(-n2nc3n(c2=O)CCN([S+](=O)([O-])c2cccc(OC)c2)C3)cc1 | – | inactive: -8.04% | – |
| COCCN1C(=O)[C@@H]2C[C@@H](CN2Cc2ccc(Cl)cc2)Oc2ccccc21 | inconclusive: 100 µM [inhibitor, partial curve] | – | – |
| CCn1ccc(C(=O)N2CCCN(c3cc(-c4ccc(OC)cc4)[nH]n3)CC2)n1 | – | inactive: 1.77% | – |
| COCCn1ccc2c(C3=CCOCC3)nc(-c3cccc(N4CCOCC4)c3)cc21 | active: 44.7 µM | – | – |
| COCC(=O)N1CCC(c2noc(COc3ccc(F)cc3)n2)CC1 | – | inactive: -12.1% | – |
| O=C(N1CCCC(n2cc(-c3nc(-c4ccccc4)no3)nn2)C1)C1(c2ccccc2)CC1 (stereo not given) | inconclusive: 50.1 µM [inhibitor, partial curve, poor fit] | – | – |
| Cc1ccc(CNC(=O)Cn2c(N3CCc4ccccc4C3)nc(C)cc2=O)cc1 | inconclusive: 50.1 µM [inhibitor, partial curve, poor fit] | – | – |
| CCOc1ccccc1NC(=O)CC1CCCN(c2cnn(CC)c(=O)c2)C1 (stereo not given) | inconclusive: 70.8 µM [inhibitor, single point] | – | – |

| Structure (SMILES) | Potency | activity change, negative = cytotoxicity | outcome |
| --- | --- | --- | --- |
| O=C(NC1CCN(Cc2ccc(-c3ccsc3)cc2)C1)c1ccccc1F (stereo not given) | inconclusive: 39.8 µM [inhibitor, partial curve, poor fit] | – | – |
| CS(=O)(=O)c1ccc(OCC2(CNCc3cccc(C(F)(F)F)c3)C[C@@H](O)[C@@H](O)C2)cc1 (stereo not given in full) | inconclusive: 79.4 µM [inhibitor, partial curve, poor fit] | – | – |
| COc1ccc(OCC2CN(CCc3ccccc3)S(=O)(=O)c3cnccc3O2)cc1 (stereo not given) | inconclusive: 44.7 µM [inhibitor, partial curve, poor fit] | – | – |
| COC(=O)CNC(=O)c1ccc(-c2ccc(OC)nn2)cc1 | – | inactive: -13.7% [at 138 µM] | – |
| CN(C)C[C@@H]1CN(S(C)(=O)=O)C[C@H]1NC(=O)c1cnco1 | – | inactive: -2.98% | – |
| CC(=O)N1CCC(NC[C@H]2O[C@H](Cc3cc(-c4cccc(O)c4)on3)CC[C@@H]2O)CC1 | – | inactive: -11% [at 138 µM] | – |
| COc1ccc(-c2noc([C@H](C)O)c2C(=O)NC(C)(C)C)cc1 | – | inactive: 3.43% [at 138 µM] | – |
| COc1ccc(CN2CCNc3cnc(OCc4cccnc4)cc3C2)cc1 | – | inactive: -23.5% [at 138 µM] | – |
| CSc1nccc(-c2cc(NCc3cccnc3)nc3[nH]ccc23)n1 | inconclusive: 39.8 µM [inhibitor, partial curve] | – | – |
| COc1ccc(CN(C)Cc2csc(C)n2)cc1CN1CCCC1 | – | inactive: -22.7% | – |
| COc1ccc(OCC(O)CN2CCC(=O)N(CC3CC3)Cc3cc(OC)ccc32)cc1 (stereo not given) | inconclusive: 50.1 µM [inhibitor, single point] | – | – |
| Cn1cncc1CNC(=O)c1cc(-c2ccc(F)cc2)cc2ncn(C)c12 | inconclusive: 112 µM [inhibitor, single point] | – | – |
| Cn1ncc2c(C(=O)Nc3cccc(Cl)c3)cc(-c3ccc(Cl)cc3Cl)nc21 | active: 31.6 µM | – | – |
| COc1cccc(-c2cc(C(=O)NCc3c(C)cc(C)[nH]c3=O)c3c(c2)ncn3C)c1OC | inconclusive: 44.7 µM [inhibitor, partial curve, poor fit] | – | – |
| COc1ccc(C(=O)N2CCN(Cc3ccccc3-c3cccnc3)CC2)cc1 | inconclusive: 39.8 µM [inhibitor, partial curve, poor fit] | – | – |
| O=C1COc2ccc(OCc3ccccc3)nc2CN1Cc1ccccc1F | active: 100 µM | – | – |
| CCN1CCN(C(=O)c2cn3cc(-c4ccccc4)sc3n2)CC1 | inconclusive: 50.1 µM [inhibitor, partial curve, poor fit] | – | – |
| CC1=C[C@@H](CN(C)CCC#N)[C@H](C(C)C)C[C@H]1Cc1nnc(-c2ccccc2F)o1 | inconclusive: 56.2 µM [inhibitor, partial curve, poor fit] | – | – |
| COc1ccc(CN[C@H]2C[C@@H](Cc3cc(CN(C)c4ccccc4)on3)C2(C)C)cc1 | inconclusive: 22.4 µM [inhibitor, full curve, poor fit] | – | – |
| C[C@]1(CO)C2CC[C@@H](O)[C@@H](CC(=O)N3CCC[C@H]3CO)[C@]2(C)CC[C@H]1OC(=O)Nc1ccccc1 (stereo not given in full) | – | inactive: -19.1% | – |
| Cc1ccccc1[S+](=O)([O-])N1CCC2OCCN(Cc3ccccc3F)C(=O)C2C1 (stereo not given) | inconclusive: 89.1 µM [inhibitor, partial curve] | – | – |
| Cc1cccc(N(C)C(=O)Cn2c(-c3cccc(Cl)c3)nc(C)c(CCO)c2=O)c1 | inconclusive: 35.5 µM [inhibitor, partial curve, poor fit] | – | – |

| Structure (SMILES) | Potency | activity change, negative = cytotoxicity | outcome |
| --- | --- | --- | --- |
| COCCN1CC(CO)C2(CCN(C(=O)Cc3c(C)noc3C)CC2)C1 (stereo not given) | – | inactive: -13.9% | – |
| COc1cccc(-c2ccc(C(=O)NCCNC(=O)C(C)C)cc2)c1 | inconclusive: 44.7 µM [inhibitor, partial curve, poor fit] | – | – |
| CCN(Cc1ccccc1)C(=O)CC1C(=O)NCCN1CCc1ccccc1 (stereo not given) | inconclusive: 89.1 µM [inhibitor, single point] | – | – |
| COc1ccc(NC(=O)COc2ccc(-c3nnc4n3CCCC4)cc2)c(OC)c1 | inconclusive: 70.8 µM [inhibitor, single point] | – | – |
| CC1(COc2ccccc2)COc2ccc(C(=O)NCc3cnccn3)cc2N1 (stereo not given) | inconclusive: 100 µM [inhibitor, partial curve, poor fit] | – | – |
| CCOc1ccc(NC(=O)Cn2c(-c3cccc(Cl)c3)nc(C)c(CCO)c2=O)cc1 | active: 31.6 µM | – | – |
| Cc1ccc(C2NC(=O)N(CC(=O)Nc3ccc(C(F)(F)F)cc3)C3=C2C(=O)OC3)cc1 (stereo not given) | active: 31.6 µM | – | – |
| Cc1nn2c(c1-c1ccccc1-c1ccccc1)N(C(=O)c1cccnc1)CCC2 | inconclusive: 56.2 µM [inhibitor, partial curve, poor fit] | – | – |
| Cn1cc(-c2ccc3c(n2)CN(CCOc2ccccc2)C(=O)CO3)cn1 | inconclusive: 89.1 µM [inhibitor, partial curve, poor fit] | – | – |
| COc1ccc(S(=O)(=O)N2CCc3nn(CC4CC4)c(=O)n3CC2)cc1Cl | inconclusive: 50.1 µM [inhibitor, partial curve, poor fit] | – | – |
| CCc1nc2c(c(-c3ccc(Cl)cc3)n1)CN(C(=O)CCl)CC2 | active: 22.4 µM | – | – |
| Cc1c(Cl)c(C(=O)N2CCCC(C)(Cc3ccc4c(c3)OCO4)C2)nn1C (stereo not given) | inconclusive: 56.2 µM [inhibitor, partial curve, poor fit] | – | – |
| O=C(c1ccc(-c2ncc3cnc(-c4cccc(F)c4)cn23)cc1)N1CC(O)C1 | inconclusive: 50.1 µM [inhibitor, partial curve, poor fit] | – | – |
| O=C1CC2(CCN(C(=O)C3CCCN3C(=O)c3ccccc3F)CC2)Oc2ccccc2N1 (stereo not given) | – | inactive: -16.2% | – |
| Cc1cccc(-n2cc(CN(C)C(C)c3ccon3)c(-c3cccc(F)c3)n2)c1 (stereo not given) | inconclusive: 28.2 µM [inhibitor, full curve] | – | – |
| COC(=O)[C@@H]1Cc2ncn(C(C)C)c2CN1C(=O)c1ccccc1 | – | inactive: -8.72% [at 174 µM] | – |
| O=S(=O)(c1ccccc1C(F)(F)F)N1CCC(C2CCNC2)CC1 (stereo not given) | inconclusive: 35.5 µM [inhibitor, partial curve] | – | – |
| COc1cccc(C(=O)N2CCC(n3cc(-c4nc(-c5ccccc5)no4)nn3)C2)c1 (stereo not given) | inconclusive: 20 µM [inhibitor, full curve, poor fit] | – | – |
| COc1ccc(F)cc1-c1cccc(C(=O)NCCN[S+](=O)([O-])c2ccc(C)cc2)c1 | inconclusive: 44.7 µM [inhibitor, partial curve, poor fit] | – | – |
| O=C(O)C[C@@H]1CCN(C(=O)Cc2cccs2)C[C@@H]1CCN1CCN(c2ccc(F)cc2)CC1 | – | inactive: 0.659% | – |
| COc1cccc(CN2CCn3c(nn(-c4ccncc4)c3=O)C2)c1 | inconclusive: 28.2 µM [inhibitor, full curve] | – | – |
